The supplement of paper PMC9174493
This is one part of the list. Single values of this set are uncertain. Values with irradiation are relative to irradiated vehicle.

What follows are compounds tested on A549-Dual (assay: ISRE reporter (Lucia luciferase) activity, viability-corrected, relative to vehicle (fold change vs vehicle); higher = more activation of STING-IRF / NF-kB immune response reporter). Conditions: 0.1 µM; irradiation: 8 Gy/4 fr.
For C=CC(=O)Nc1cc(Nc2nccc(-c3cn(C)c4ccccc34)n2)c(OC)cc1N(C)CCN(C)C [Osimertinib (AZD9291)], the ISRE reporter was 0.971. CC1CC2C3CCC4=CC(=O)C=CC4(C)C3(F)C(O)CC2(C)C1(O)C(=O)COP(=O)([O-])[O-].[Na+].[Na+] (centres undefined) [Dexamethasone Sodium Phosphate] gave an ISRE reporter of 0.0814. Work on O=C(O)CCCN1CCC(OC(c2ccc(Cl)cc2)c2ccccn2)CC1.O=S(=O)(O)c1ccccc1 (centres undefined) [Bepotastine Besilate] yielded an ISRE reporter of 1.11. Compound CC(=O)OC(C)C(C)C(=O)OCC12C3CC4(C)C(=CCC5C6(C)CCC(OC7OC(C(=O)[O][Na])C(OC8OC(CO)C(O)C(O)C8O)C(O)C7OC7OCC(O)C(O)C7O)C(C)(CO)C6CCC54C)C1CC(C)(C)C(O3)C2O (centres undefined) [Sodium Aescinate] has an ISRE reporter of 1.1. Compound Nc1nc(CC(=O)Nc2ccc(CCNCC(O)c3ccccc3)cc2)cs1 (centres undefined) [Mirabegron] has an ISRE reporter of 1.08. Work on O=C1OC(OC(=O)c2cccnc2Nc2cccc(C(F)(F)F)c2)c2ccccc21 (centres undefined) [Talniflumate] yielded an ISRE reporter of 1.01. Compound CN1C(C(=O)Nc2ccccn2)=C(O)c2sccc2S1(=O)=O [Tenoxicam] has an ISRE reporter of 1.04. CCC(=O)NS(=O)(=O)c1ccc(-c2c(-c3ccccc3)noc2C)cc1 [Parecoxib] gave an ISRE reporter of 1.12. For CNCC(O)C(O)C(O)C(O)CO.Cc1c(Nc2ncccc2C(=O)O)cccc1C(F)(F)F [Flunixin Meglumin], the ISRE reporter was 0.998. Cc1cncc(CN2CCC(=C3c4ccc(Cl)cc4CCc4cccnc43)CC2)c1.O=C(O)/C=C/C(=O)O [Rupatadine Fumarate] gave an ISRE reporter of 0.79. Compound COC(=O)CC(O)(CCCC(C)(C)O)C(=O)OC1C(OC)=CC23CCCN2CCc2cc4c(cc2C13)OCO4 (centres undefined) [Homoharringtonine] has an ISRE reporter of 0.729. Work on CC(C(=O)[O-])c1ccc(CC2CCCC2=O)cc1.[Na+] (centres undefined) [Loxoprofen Sodium] yielded an ISRE reporter of 1.06. C=C1c2cccc(O)c2C(=O)C2=C(O)C3(O)C(=O)C(C(N)=O)=C(O)C(N(C)C)C3C(O)C12.Cl (centres undefined) [Methacycline HCl] showed an ISRE reporter of 1.15. CC1CCC2(C(=O)OC3OC(COC4OC(CO)C(OC5OC(C)C(O)C(O)C5O)C(O)C4O)C(O)C(O)C3O)CCC3(C)C(=CCC4C5(C)CC(O)C(O)C(C)(CO)C5CCC43C)C2C1C (centres undefined) [Asiaticoside] was tested, and the ISRE reporter was 1.07. For Nc1nc(F)nc2c1ncn2C1OC(CO)C(O)C1O (centres undefined) [Fludarabine], the ISRE reporter was 0.906. Work on O=NN(CCCl)C(=O)NC1CCCCC1 [Lomustine] yielded an ISRE reporter of 0.807. Compound O=CC(O)C(O)C(O)C(O)COC1OC(CO)C(O)C(O)C1O (centres undefined) [Melibiose] has an ISRE reporter of 1.15. With O.S=c1nc[nH]c2nc[nH]c12 [6-Mercaptopurine (6-MP) Monohydrate] the ISRE reporter was 0.975. CC(C(=O)O)c1cccc(C(=O)c2ccccc2)c1 (centres undefined) [Ketoprofen] gave an ISRE reporter of 0.934. CNC1CCC(c2ccc(Cl)c(Cl)c2)c2ccccc21.Cl (centres undefined) [Sertraline HCl] was tested, and the ISRE reporter was 1.01. With CC1(C)OC2CC3C4CCC5=CC(=O)CCC5(C)C4(F)C(O)CC3(C)C2(C(=O)CCl)O1 (centres undefined) [Halcinonide] the ISRE reporter was 0.0669. CC(=O)OC12COC1CC(O)C1(C)C(=O)C(O)C3=C(C)C(OC(=O)C(O)C(NC(=O)OC(C)(C)C)c4ccccc4)CC(O)(C(OC(=O)c4ccccc4)C21)C3(C)C (centres undefined) [Docetaxel] was tested, and the ISRE reporter was 0.947. CCN(CC)Cc1cc(Nc2ccnc3cc(Cl)ccc23)ccc1O.Cl.Cl [Amodiaquine hydrochloride] gave an ISRE reporter of 0.935. Compound Cc1c(N)c(=O)n(-c2ccccc2)n1C [4-Aminoantipyrine] has an ISRE reporter of 0.959. Cn1cnc2c(F)c(Nc3ccc(Br)cc3F)c(C(=O)NOCCO)cc21 showed an ISRE reporter of 0.829. CC1(C)C2CCC1(C)C(O)C2 (centres undefined) [Borneol] gave an ISRE reporter of 1.13. Work on CC1CC2C3CCC4=CC(=O)C=CC4(C)C3(Cl)C(O)CC2(C)C1(OC(=O)c1ccco1)C(=O)CCl (centres undefined) [Mometasone furoate] yielded an ISRE reporter of 0.0592. Work on CCN(CC)CCCC(C)Nc1ccnc2cc(Cl)ccc12.O=P(O)(O)O.O=P(O)(O)O (centres undefined) [Chloroquine Phosphate] yielded an ISRE reporter of 0.939. COc1cc2c(cc1Cc1cccc(Cl)c1F)c(=O)c(C(=O)O)cn2C(CO)C(C)C (centres undefined) [Elvitegravir (GS-9137, JTK-303)] showed an ISRE reporter of 1.15.
